Numbering of substitutions follows the chain as printed. These are yes or no findings as the source states them, for the method shown. In cells and extracts the contact can be indirect. Some entries that bind do so weakly or less than the wild type. Where a sequence is shown, tags or fusion partners need not be part of it.
T1: constitutively negative (CN; GDP-bound) form of RAB2A, S20N (UniProt P53994)
T1 sequence: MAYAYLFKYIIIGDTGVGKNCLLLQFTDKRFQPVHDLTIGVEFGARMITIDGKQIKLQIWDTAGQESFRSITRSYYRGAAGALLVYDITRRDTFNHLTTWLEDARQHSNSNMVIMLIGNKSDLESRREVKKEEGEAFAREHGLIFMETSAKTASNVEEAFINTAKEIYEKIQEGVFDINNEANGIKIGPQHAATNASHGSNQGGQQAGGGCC

T2: constitutively active (CA; GTP-bound) form of RAB2B, Q65L (UniProt P59279)
T2 sequence: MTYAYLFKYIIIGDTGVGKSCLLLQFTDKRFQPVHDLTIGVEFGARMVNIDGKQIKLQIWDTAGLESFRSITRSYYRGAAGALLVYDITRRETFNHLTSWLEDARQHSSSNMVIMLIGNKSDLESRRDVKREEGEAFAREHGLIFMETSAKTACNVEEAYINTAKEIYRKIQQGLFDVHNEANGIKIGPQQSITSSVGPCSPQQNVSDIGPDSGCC

T3: constitutively negative (CN; GDP-bound) form of RAB2B, S20N (UniProt P59279)
T3 sequence: T2 sequence with S20N, L65Q

T4: constitutively active (CA; GTP-bound) form of RAB2A, Q65L (UniProt P53994)
T4 sequence: T1 sequence with N20S, Q65L

B1: FLAG-tagged GARIN2 (protein, UniProt D3YV92 1-440)
chain: MMKKNRNKKAMNKQEALFIPHYYRLGHLKNILDGGEYAPYVSPPILESNFIQVNRRGESIYLHNRANWVTVGICSSNPIFKTPNMMLLAHLTPEARKEPEPLFKTLLKSSSSGTLVLTRFIPLQFVTLSVHSAKNMRLKVKLINGRSYYLQLCAPVYKQDIIFSQWVDLIPLLNQEKIKNTKVSEVSSLSELTNSTDIAGSMDITDITAFRELRPRHPKTHRYPCNIMESADFSEYTDVTDVTDVTDVTDMLDNGITDVQDIKIVTEVTEVTEVTEVTEVSEVSDVKMATNISGVKIVFENDDIIKTKQEEKEYTLKHRSLQDTKTKSDYQDSPNPVTMSNIALALQDEGCFQTTQTPVKSKEDIYKEICDETSEENMIRLQNIHLKATESRSTRTDSDISDGELKLGRYLHKQCSSREQSFIHSLGSLPRGFVFLHLLL
B2: FLAG-tagged GARIN4 (protein, UniProt B7XG49 1-585)
chain: MDVKEESLLPYYTAQSGAEVGMFNGLFDTATGKLQQQLHKGEYDIFKYAPIFESDFIQITRYGEVIDVHNRVRMVTVGIACTSPILPLPDVMLLARPAPFDELLGHGQSTNSTKGKKRKAGKTLELTRLLPLKFVRISVHRRDEQQLRLKFATGRSCYLQLCPPPESKDDLFSYWEKLIDLLRPPVDSNTSTYAIPAGDMMSTPFLDEELKIPKKKGKRKSGHRKKRDLYKVSVKSLPATTDVSAISSSAFSGGEETHDSHISTIVSRIPTPKVSSKVLARESASEAIVCDLVDSLSLAANMPEGLGQINKATVEEAALGARGSKSHLTIASTGKMSPKSMKIALAGMASKSLEYIPSSPASLSRKEIMTVTNSRIETTGKSVGETANDPVPVVLALTLPSESHSNEETGRRKAYETSTKAHKERRSRRDQRAKERVGSRSEQHQRTGEGHKTEGDKEFQKSTSHRGVGDDKDKGSKRNRWHKGVSHVPITKESRSSHKLSRTISTASSASTSKRVGRISLFLRNIRASLAGKSLAPRGQDVGIMTKTLETTDVKAIMEAEDGQGLEIIDSVTSEVMETVTFEAH
B3: FLAG-tagged GARIN3 (protein, UniProt Q5STT6 1-665)
chain: MPGMKRTMSSECLLPYYTAHSYRSMGVFNTSMGNLQRQLYKGGEYDIFKYAPMFESDFIQISKRGEVIDVHNRVRMVTVCIASTSPVLPLPDVMLLARPAKVCEEHARRARFIKGKGCKPSKTLELTRLLPLKFVKISVHDHEKQQLRLKLATGRTFYLQLCPSSDAREDLFCYWEKLVYLLRPPMTNCISNSTLPTGETSVDTKSTLVSEIRGEGDQNSRPQSSPTVSEATSAAFAGGERTQPAAAAAVTPVSAKARAAGTAGAAAGTAGAAAGTAGPAAGPAAGTAGPAAGTAGAAAGTAGAAAGTAGATAGTAGATAGMAGATAGTAAETAGTAAETAGAARAAGGPMAAAVAAPSAGMTKAETATSPTSGVISLAATTTKPPGSGQVAAAMIGSAAKDQVGGESSKAMALAANITLENVDVALAGAANSISESPPAGGDASGSPDTGLNVAFAGSIKTKSPAEDKPEAPLVSTLQSEGYMCERDGSQKVSQTSSEAKEKRERREKDRTSSRKSSHHRRTGMSRHSSKDKSRKTSSYRSVSGKTREDKGKGHGRLRGKRHSSSHKSESRTGHKTRKNRSPAGLGSVSKRATKITSFFRSFLVRPTPKAGDTSCDRGGVDIVTKLVEKKQDIEAVMEKSKDSEFKDTVISETMEKIILETKSI
B4: FLAG-tagged GARIN5A (protein, UniProt A1L3C1 1-212)
chain: MKGGRDLKAARGGADRPLAPAYAPCRPGRLQRHLLSGEFDQLRDFPIFESNFVQVTRFGEVANKVTMGVAASSPALELPDLLLLAGPDKENGHLQLLGLFPLQFVQLFVHDESRQQLKVKFRTGRAFYLQLRSPPETRDCEFGRWVRLLYRLRFHSPTCAVPFTHEDTAPEEEEEEEEEEEEEEVKEGQLQPPEFQATEARLDPQVSELWGL
B5: GARIN1B (protein, UniProt Q3UZD7 1-341)
chain: MMTSVPPRKSWWTSKKTVKVIRSYPTFPSLNAWEKFRGLLPVDGETNPGVGLGVEEGLLCQMVHSPEFNLFPNSVVFESNFVQVRRSRNWKEIYKASNTMALGVTSSVPCLPLPNILLMARVKWHQGQSQTWNRPSRAPSINLKSILPLKFVELQIWDDQERVLRLRTVTEKIYYLKLHPDHPETVFHFWIRLVQILHKGLSITTKDPTILVTHCLVPKSLCSPGGKTELVQKKSKGLQPSESLTHLMAQGESETLSQIFSDLHQQKQYRSEKMHINKTSSEKATPCEDSIPCTCDLNWRDAFMFGEWERENPSGPQPLSLLGTLAASSRPRLSLTGGNSI

Target: PA-tagged RAB2A (UniProt P53994)
Experiment: co-IP; both proteins co-expressed in HEK293T cells; lysate in 1% Triton X-100, 50 mM Tris-HCl pH 7.5, 150 mM NaCl; Dynabeads magnetic beads; Western blotting; which partner was precipitated is not told

binding | Binder
binds | B1
binds | B2
binds | B3
binds | B4

Target: PA-tagged RAB2B (UniProt P59279)
Experiment: as above

binding | Binder
binds | B1
binds | B2
binds | B3
binds | B4

Target: T1, constitutively negative (CN; GDP-bound) form of RAB2A, S20N
Experiment: as above

binding | Binder
binds weakly | B1
no binding | B5
binds weakly | B2
binds | B3
binds | B4

Target: T2, constitutively active (CA; GTP-bound) form of RAB2B, Q65L
Experiment: as above

binding | Binder
binds | B1
binds | B5
binds | B2
binds | B3
binds | B4

Target: T3, constitutively negative (CN; GDP-bound) form of RAB2B, S20N
Experiment: as above

binding | Binder
no binding | B5
binds | B3

Target: T4, constitutively active (CA; GTP-bound) form of RAB2A, Q65L
Experiment: as above

binding | Binder
binds | B1
binds | B5
binds | B2
binds | B3
binds | B4

Reference: article PMC11236154
